In US10519504B2, “Methods for treatment of oncological disorders using epimetabolic shifters, multidimensional intracellular molecules, or environmental influencers” (Berg LLC, priority 2009, dated 2019):

What was measured:
Assay type in all cases: cell-based
[1] = system: SK-MEL-28 cells; test: Real-time PCR Apoptosis Array
Procedure: The formulation of the Q10 was as follows. […] The resulting solution was warmed in a 65° C. water bath and vortexed at high speed. […] For the control vehicle, 9.5 mL of media was added to 500 μL of isopropanol. The control stock was further diluted (2 mL of stock) with 8 mL of media.
RNA was quantified by measuring Optical Density at 260 nm.
(§1) (SABiosciences, Frederick, Md.).

[2] = system: SK-MEL-28 cells; test: Real-time PCR Oxidative Stress and Antioxidant Defense Array
Procedure: Experimental details: […] (SABiosciences, Frederick, Md.). […] Further experiments were carried out using SKMEL-28 cells. […] The PCR array (SABiosciences) is a set of optimized real-time PCR primer assays on 96-well plates for pathway or disease focused genes as well as appropriate RNA quality controls. The PCR array performs gene expression analysis with real-time PCR sensitivity and the multi-gene profiling capability of a microarray.

[3] = system: SK-MEL-28 cells; test: Real-time PCR Diabetes Array
From the text: as §1

[4] = system: SK-MEL-28 cells; test: Antibody microarray (Panorama XP725); settings: SKMEL-28; Q10 24 hr
[5] = SK-MEL-28, 100 μM Q10, at 48 hours
[6] = SK-MEL-28, 100 μM Q10, at 48 hours then down regulated

## COC1=C(OC)C(=O)C(C/C=C(\C)CC/C=C(\C)CC/C=C(\C)CC/C=C(\C)CC/C=C(\C)CC/C=C(\C)CC/C=C(\C)CC/C=C(\C)CC/C=C(\C)CCC=C(C)C)=C(C)C1=O [Q10, Coenzyme Q10]
[1]
  tumor protein p73 mRNA: strong down regulation
[1]; SK-MEL-28, 100 μM Q10, after 48 hours (then), gene named above
  Regulation: down regulated
[2]
  Forkhead box M1 (FOXM1) mRNA: down regulated
  NOX5 mRNA: levels do not change
  PREX1 mRNA: upregulated
[2]; 16 hour time point and onward
  Neutrophil cytosolic factor 1 (NCF1) mRNA: induced at very high levels after an initial lag phase
[2]; SKMEL-28, 100 μM Q10, 16 hr
  NCF1 mRNA level change: high
[3]; [5]
  ADRB3 Regulation: Down Regulated
  CEACAM1 Regulation: Down Regulated
  CEBPA Regulation: Up regulated at 48
  CTLA4 Regulation: Down Regulated
  DUSP4 Regulation: Down Regulated
  ENPP1 Regulation: Down Regulated
  FOXC2 Regulation: Down Regulated
  HMOX1 Regulation: Down Regulated
  ICAM1 Regulation: Down Regulated
  IL4R Regulation: Down Regulated
  IRS2 Regulation: Down Regulated
  NKX2-1 Regulation: Down Regulated
  NSF Regulation: Down Regulated
  PIK3CD Regulation: Down Regulated
  PPARG Regulation: Down Regulated
  PRKCB1 Regulation: Down Regulated
  SELL Regulation: Down Regulated
  STXBP1 Regulation: Down Regulated
  TNF Regulation: Up regulated at 48
[3]; [6]
  G6PD Regulation: Up regulated at 48
  IRS1 Regulation: Up regulated at 48
  SREBF1 Regulation: Up regulated at 48
  TGFB1 Regulation: Up regulated at 48
[3]; SK-MEL-28, 100 μM Q10, at 58 hours then down regulated
  VEGFA Regulation: Up regulated at 58
[3]; SK-MEL-28, 100 μM Q10, at 72 hours
  TNFRSF1A Regulation: Down Regulated
[3]; SKMEL-28, 100 μM Q10
  MAPK14 mRNA: significantly down-regulated
[3]; cells following Q10 treatment (cell type not stated)
  expression of HNF4A: upmodulated
[4]
  protein levels of Bcl-xl, Bmf, BTK, BLK, cJun (pSer63), Connexin 32, PUMA bbc3, BID, Par4, cCbl: altered levels
